Assay results published in PubChem BioAssay AID1508624 (National Center for Advancing Translational Sciences (NCATS), 2021).
Hit rate of the full screen: of about 48,000 compounds, about 120 (0.25%) were called active. Not shown: some 4% with an inconclusive outcome. Calls follow the shape of the dose curve; as a rule, active = well fitted activation curve with a large enough effect; inconclusive = small, poorly fitted or top-dose-only effect, or another doubt; inactive = no such curve, though single readings can be large or run the other way. This is a selection; strong and weak results do not stand in their true shares. Entries without a call were filed so in the source.

Assay: Primary qHTS for Identification of Small Molecule Activators of Huntingtin-Antisense Promoter Activity; also: nearly all actives have a fitted effect of over 55% in size
Conditions: HEK293 HTT-AS promoter firefly luciferase reporter, 24 h; activity change, positive = activation: at 57.5 µM (top of the series), percent change from vehicle, -100% = no light
Outline: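 Firefly luciferase signal from promoter-reporter HEK293 cells was scaled between vehicle (0%) and zero RLU (-100%). Compounds were tested at final concentrations of up to 57.5 uM over 24 h at 37 degrees C. PTC124 at 50 uM final served as control inhibitor.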
Potency is read from the fitted curve at half-maximal effect.

**Q.** For `CCN(CC)CCOc1ccc(C(=C(Cl)c2ccccc2)c2ccccc2)cc1`, which Potency is on record?
**A.** active: 24.3 µM

**Q.** With `O=C(NCCc1nc2ccccc2n1Cc1c(F)cccc1Cl)c1ccco1` as the molecule, how does the activity change, positive = activation read?
**A.** -35%

**Q.** For `CC1CCC(N2CC(=O)N(CCC3=CCCCC3)C(c3ccc(F)cc3)C2=O)CC1` (centres undefined), which activity change, positive = activation is on record?
**A.** -4.06%

**Q.** For `Cc1c(NC(=O)c2cc(-c3ccccc3O)on2)c(=O)n(-c2ccccc2)n1C`, which activity change, positive = activation is on record?
**A.** 6.82%

**Q.** With `CCCOc1ccc(NC(=O)CC2C(=O)N(c3ccc(C)cc3)C(=O)N2CCc2ccncc2)cc1` (centres undefined) as the molecule, how does the activity change, positive = activation read?
**A.** -11.6%

**Q.** With `CCCC12CN3CC(C)(CN(C1)C3c1ccccc1Cl)C2=O` (centres undefined) as the molecule, how does the activity change, positive = activation read?
**A.** -0.991%

**Q.** For `CCC1CCCCN1CCCNC(=O)c1ccc2c(c1)N(Cc1ccccc1F)C(=O)c1ccccc1S2(=O)=O` (centres undefined), which “activity change, positive = activation” value is on record?
**A.** inactive: -33.1%

**Q.** Which “activity change, positive = activation” value does the source give for `Cc1ccc(S(=O)(=O)Nc2cc(Cl)ccc2C(=O)Nc2nc(-c3ccccc3)cs2)cc1` here?
**A.** inactive: -16%

**Q.** With `COC(=O)c1nnn(CC(=O)Nc2cc(F)ccc2F)c1C(=O)OC` as the molecule, how does the “activity change, positive = activation” value read?
**A.** inactive: -3.74%

**Q.** With `CCOc1ccc(-c2cc3c(=O)n(CC(=O)NCc4ccc(OC)cc4)ccn3n2)cc1` as the molecule, how does the Potency read?
**A.** active: 0.447 µM

**Q.** With `CC(=O)c1cccc(NCc2ccccc2-c2nnc(-c3ccccc3)o2)c1` as the molecule, how does the activity change, positive = activation read?
**A.** 35.3%

**Q.** Which activity change, positive = activation does the source give for `CCOc1ccc(S(=O)(=O)N2CCC(N3CCN(Cc4ccc(F)cc4)C(=O)C3=O)CC2)cc1` here?
**A.** -11.2%

**Q.** With `CCOc1ccc(C(=O)NCCc2sc(-c3cccc(F)c3)nc2C)cc1OCC` as the molecule, how does the “activity change, positive = activation” value read?
**A.** inactive: -23.3%

**Q.** With `Cc1cc(C)c(NC(=O)Nc2sc3nc4n(c(=O)c3c2C)CCC(C)CC4)c(C)c1` (centres undefined) as the molecule, how does the activity change, positive = activation read?
**A.** -10.8%

**Q.** Which “activity change, positive = activation” value does the source give for `Cc1cc(C)cc(Nc2ncnc3sc4c(c23)CCCC4)c1` here?
**A.** inactive: -15.7%

**Q.** With `COc1ccc2cc(-c3nc(-c4ccc(S(C)=O)cc4)[nH]c3-c3ccncc3)ccc2c1` (centres undefined) as the molecule, how does the “activity change, positive = activation” value read?
**A.** inactive: -18.5%

**Q.** With `O=C(c1cc(-c2cccc(Cl)c2)on1)N1CCN(c2ccccc2)CC1` as the molecule, how does the activity change, positive = activation read?
**A.** 2.39%

**Q.** With `Cc1cccc(N2C(=O)C(CC(=O)Nc3ccc(Cl)cc3)N(Cc3ccco3)C2=O)c1` (centres undefined) as the molecule, how does the activity change, positive = activation read?
**A.** -21.8%

**Q.** With `Cc1oc2ccc(O)c(CN3CCN(C)CC3)c2c1C(=O)Nc1cccc(Cl)c1C` as the molecule, how does the activity change, positive = activation read?
**A.** 0.135%

**Q.** With `Cc1cc(-c2ccc(CC(=O)Nc3ccc(-c4cccnc4)cc3)cc2)ccn1` as the molecule, how does the “activity change, positive = activation” value read?
**A.** inactive: -32.5%

**Q.** Which “activity change, positive = activation” value does the source give for `Cn1c(=O)c2cc(C(=O)NCCCN3CCN(c4cccc(Cl)c4)CC3)sc2c2ccccc21` here?
**A.** inactive: -9.16%

**Q.** With `Cc1ccc(NC(=O)CSc2nccn2Cc2ccco2)cc1Cl` as the molecule, how does the Potency read?
**A.** active: 12.6 µM

**Q.** For `Cc1ccc(CNC(=O)CCc2c(C)c3ccc(O)c(C)c3oc2=O)cc1`, which activity change, positive = activation is on record?
**A.** -12.4%

**Q.** With `CC1CCc2c(sc(NC(=O)c3cc(-c4cccc(Cl)c4)on3)c2C(N)=O)C1` (centres undefined) as the molecule, how does the activity change, positive = activation read?
**A.** 2.14%

**Q.** Which “activity change, positive = activation” value does the source give for `O=C(CSc1cn(CCNC(=O)c2ccccc2F)c2ccccc12)Nc1ccccc1F` here?
**A.** inactive: -16.2%

**Q.** For `COC(=O)Cc1c(C)c2cc3c(c(C)c2oc1=O)OCN(CCc1ccccc1F)C3`, which activity change, positive = activation is on record?
**A.** -25.5%

**Q.** With `Cc1ccc(Cl)cc1-n1ncc2c(NC3CCCCC3)ncnc21` as the molecule, how does the “activity change, positive = activation” value read?
**A.** inactive: -11.7%

**Q.** Which activity change, positive = activation does the source give for `Cc1ccc(C(=O)O)cc1-n1c(C)ccc1-c1ccccc1` here?
**A.** 5.75%

**Q.** For `COc1cc(OC)c2c(C)c(CC(=O)NCCc3ccccc3OC)c(=O)oc2c1`, which activity change, positive = activation is on record?
**A.** 1.36%

**Q.** For `CC(C)c1cc(C(=O)NC(C)c2ccccc2)no1` (centres undefined), which activity change, positive = activation is on record?
**A.** 11.8%

**Q.** For `COc1ccc(-c2cc(C(=O)NCc3ccc(F)cc3)no2)cc1`, which activity change, positive = activation is on record?
**A.** 0.931%

**Q.** Which “activity change, positive = activation” value does the source give for `Cc1ccc(CNC(=O)Cn2c(=O)ccc3cc(S(=O)(=O)N4CCCC4)ccc32)cc1` here?
**A.** inactive: -19.3%

**Q.** With `Cc1nn(CC(=O)N2CCN(c3ccccc3)CC2)c(=O)c2cc3cc(F)ccc3n12` as the molecule, how does the activity change, positive = activation read?
**A.** -0.0091%

**Q.** Which activity change, positive = activation does the source give for `CCCCNS(=O)(=O)c1ccc(NC(=O)c2c(-c3ccccc3)noc2C)cc1` here?
**A.** -10.5%

**Q.** With `Cc1ccnc(NC(c2cccc(O)c2)c2ccc3ccc(C)nc3c2O)c1` (centres undefined) as the molecule, how does the “activity change, positive = activation” value read?
**A.** inactive: -10.1%

**Q.** With `COc1ccccc1N1CCN(S(=O)(=O)c2cc(C(=O)Nc3ccc(Oc4ccccc4)cc3)ccc2F)CC1` as the molecule, how does the “activity change, positive = activation” value read?
**A.** inactive: -41.6%

**Q.** Which activity change, positive = activation does the source give for `COc1ccc(-c2nc3ccccc3s2)cc1NC(=O)c1cc(OC)c(OC)c(OC)c1` here?
**A.** 70.8%

**Q.** With `Cn1c(=O)c2c(-c3ccccc3)n3c(c2n(C)c1=O)C(c1ccc([N+](=O)[O-])cc1)Nc1ccccc1-3` (centres undefined) as the molecule, how does the activity change, positive = activation read?
**A.** -17.6%

**Q.** Which activity change, positive = activation does the source give for `Cc1oc2ccc(O)c(CN3CCCCC3C)c2c1C(=O)Nc1ccccc1` (centres undefined) here?
**A.** -13%

**Q.** For `Cc1ccccc1CSCCNC(=O)C1CCN(S(=O)(=O)Cc2ccccc2)CC1`, which activity change, positive = activation is on record?
**A.** -5.33%

**Q.** Which “activity change, positive = activation” value does the source give for `O=C(NCC(c1cccs1)S(=O)(=O)c1cccs1)c1ccc(F)c(F)c1` (centres undefined) here?
**A.** inactive: -18.5%

**Q.** Which “activity change, positive = activation” value does the source give for `CCN(CC)c1ccc(C(=O)N2CCc3c([nH]c4ccccc34)C2c2ccc(F)cc2)cc1` (centres undefined) here?
**A.** inactive: -22.7%

**Q.** For `CC(C)Cc1cc(C(=O)NCc2ccc(Cl)cc2)no1`, which activity change, positive = activation is on record?
**A.** 12.8%

**Q.** For `COC(=O)CN1C(=O)CSc2ccc(S(=O)(=O)Nc3ccc(F)c(Cl)c3)cc21`, which activity change, positive = activation is on record?
**A.** -7.59%

**Q.** For `CC(C)c1ccc(C2CC(=O)Nc3cc4c(cc32)OCCO4)cc1` (centres undefined), which “activity change, positive = activation” value is on record?
**A.** inactive: -43.4%

**Q.** Which activity change, positive = activation does the source give for `Cc1c(Cl)cccc1NC(=O)c1cc(-c2ccc3c(c2)OCO3)on1` here?
**A.** 10.1%

**Q.** With `Cc1nn(CC(=O)NC2CC2)c(=O)c2cc3cc(F)ccc3n12` as the molecule, how does the activity change, positive = activation read?
**A.** -9.4%

**Q.** With `Cc1ccc(NC(=O)c2ccc3c(c2)NC(=O)c2ccccc2S3)c(Cl)c1` as the molecule, how does the activity change, positive = activation read?
**A.** -42.3%

**Q.** For `CC(C)COc1ccc(C(=O)N2CCCCC2CCN2CCOCC2)cc1` (centres undefined), which “activity change, positive = activation” value is on record?
**A.** inactive: -4.62%
